According to the antibiotic and cytotoxicity screens of Wong et al. (2023):
Some of the results follow.

How the values were obtained:
HSkMC = human skeletal muscle cells; assay: cytotoxicity call (relative viability < 0.9); details: 10 µM
HepG2 = assay: cytotoxicity call (relative viability < 0.9); details: 10 µM
S. aureus RN4220 = assay: growth inhibition call (relative growth <= 0.2); details: 50 µM

Structure (SMILES) | cytotoxicity call (HSkMC) | cytotoxicity call (HepG2) | growth inhibition call (S. aureus RN4220)
CC(C)NC(=O)Nc1ccc2c(c1)C(=O)N([C@@H](C)CO)C[C@H](C)[C@@H](CN(C)S(=O)(=O)c1ccc(Cl)cc1)O2 | inactive | inactive | inactive
NCc1ccccc1F | inactive | inactive | inactive
C[C@H]1CN([C@@H](C)CO)C(=O)c2cc(C#CC(C)(C)O)cnc2O[C@H]1CN(C)C(=O)CN(C)C | inactive | inactive | inactive
Nc1ccc(S(=O)(=O)Nc2ccnn2-c2ccccc2)cc1 | inactive | inactive | inactive
C[C@H](CO)N1C[C@H](C)[C@@H](CN(C)C(=O)CN(C)C)Oc2cc(C#CC(C)(C)O)ccc2S1(=O)=O | inactive | inactive | inactive
CC/C(=C\c1ccccc1)C(=O)O | inactive | inactive | inactive
O=C(O)COc1nn(Cc2ccccc2)c2ccccc12 | inactive | inactive | inactive
C[C@H]1CN([C@@H](C)CO)C(=O)Cc2cc(NS(=O)(=O)c3ccc(F)cc3)ccc2O[C@@H]1CN(C)S(=O)(=O)c1cn(C)cn1 | inactive | inactive | inactive
Cn1nnnc1SCC1=C(C(=O)[O-])N2C(=O)C(NC(=O)C(OC=O)c3ccccc3)C2SC1.[Na+] (stereo unspecified) | inactive | inactive | active
C[C@@H]1CN([C@H](C)CO)C(=O)Cc2cc(NC(=O)Nc3cccc4ccccc34)ccc2O[C@@H]1CN(C)C(=O)Nc1ccc(C(F)(F)F)cc1 | inactive | inactive | inactive
C[C@@H]1CNC(=O)CCO1 | inactive | inactive | inactive
COCCNC(=O)C[C@H]1CC[C@H](NS(=O)(=O)c2ccc(C)cc2)[C@@H](CO)O1 | inactive | inactive | inactive
C[C@@H]1CN([C@H](C)CO)C(=O)c2cc(NC(=O)C3CCCCC3)ccc2O[C@@H]1CN(C)Cc1ccc(C(=O)Nc2ccccc2N)cc1 | inactive | inactive | inactive
CC(C)NC(=O)N[C@@H]1C=C[C@H](CC(=O)NCCCN(C)C)O[C@@H]1CO | inactive | inactive | inactive
C[C@H]1CN([C@@H](C)CO)C(=O)c2cccc(NC(=O)c3ccc(-c4nccs4)cc3)c2O[C@H]1CN(C)C(=O)Nc1ccc2c(c1)OCO2 | inactive | inactive | inactive
COc1oc(C(=O)NC2CCCCC2)c(-c2ccc(Cl)cc2)c1S(=O)(=O)c1ccccc1NC(C)=O | inactive | inactive | inactive
C[C@@H]1CN([C@H](C)CO)C(=O)Cc2cc(NC(=O)CCN3CCOCC3)ccc2O[C@@H]1CN(C)C(=O)Nc1ccccc1 | inactive | inactive | inactive
C[C@H]1CN([C@@H](C)CO)C(=O)Cc2cc(NC(=O)Nc3ccc4c(c3)OCO4)ccc2O[C@H]1CN(C)Cc1ccc(C(=O)Nc2ccccc2N)cc1 | inactive | active | inactive
Cc1noc(C)c1NC(=O)Nc1ccc2c(c1)C(=O)N([C@H](C)CO)C[C@H](C)[C@@H](CN(C)Cc1ccc3c(c1)OCO3)OCCCC[C@H](C)O2 | inactive | inactive | inactive
COc1ccc(S(=O)(=O)N(C)C[C@H]2OCCCC[C@@H](C)Oc3ccc(NC(=O)C4CCCCC4)cc3C(=O)N([C@H](C)CO)C[C@@H]2C)cc1 | inactive | inactive | inactive
C[C@@H]1CCCCO[C@H](CN(C)S(=O)(=O)c2ccccc2)[C@H](C)CN([C@@H](C)CO)C(=O)c2cc(NC(=O)CCC(F)(F)F)ccc2O1 | inactive | inactive | inactive
CNC[C@@H]1OCCCC[C@@H](C)Oc2ccc(NC(=O)Nc3cccc4ccccc34)cc2C(=O)N([C@@H](C)CO)C[C@H]1C | inactive | inactive | inactive
Cc1ccc(S(=O)(=O)N(C)C[C@@H]2Oc3ccc(NS(=O)(=O)c4cccs4)cc3C(=O)N([C@H](C)CO)C[C@H]2C)cc1 | inactive | inactive | inactive
C[C@@H]1CCCCO[C@H](CN(C)Cc2ccncc2)[C@H](C)CN([C@H](C)CO)C(=O)c2cc(NC(=O)Nc3cccc4ccccc34)ccc2O1 | inactive | inactive | inactive
C[C@@H]1CN([C@@H](C)CO)C(=O)c2cc(NC(=O)Nc3ccc(C(F)(F)F)cc3)ccc2O[C@@H]1CN(C)Cc1ccc(-c2ccccc2)cc1 | active | active | inactive
C[C@@H]1CN([C@@H](C)CO)C(=O)c2cccc(NS(C)(=O)=O)c2O[C@H]1CN(C)S(=O)(=O)c1ccc(F)cc1 | inactive | inactive | inactive
O=C(C[C@H]1CC[C@@H](NS(=O)(=O)c2ccccc2)[C@@H](CO)O1)NCc1ccncn1 | inactive | inactive | inactive
